Assay results taken from the supplement of paper PMC4604168 (melanoma cell lines).
This is one part of the list. Most values come without repeats; read them as rough.

System: 501Mel
Assay: cell count relative to DMSO control; melanoma cells; higher = more viable cells
Conditions: library dose: low library concentration; 72 h
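Also: cell number obtained by counting DAPI-stained nuclei in high-throughput microscope images with image analysis software, screen run in 1,536-well plates.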

| Compound | cell count |
| --- | --- |
| C#Cc1cccc(Nc2ncnc3cc(OCCOC)c(OCCOC)cc23)c1 [erlotinib] + COc1ccc2c(c1)CCC1C2CCC2(C)C(NCCCCCCN3C(=O)C=CC3=O)CCC12 [U73122] (first compound 0.8 µM, partner dose 0.4 µM) | 94.3% |
| COCC[n+]1c2c(n(Cc3cnccn3)c1C)C(=O)c1ccccc1C2=O + O=C(O)C(=O)Nc1sc2c(c1C(=O)O)CCNC2 [TCS401] (first compound 0.0004 µM, partner dose 1.66667 µM) | 86.4% |
| O=C(CCCCCCC(=O)Nc1ccccc1)NO [vorinostat] + O=S(=O)(c1ccccc1)N(CC(F)(F)F)c1ccc(C(O)(C(F)(F)F)C(F)(F)F)cc1 [T0901317] (first compound 0.08 µM, partner dose 1.4 µM) | 109% |
| COCC[n+]1c2c(n(Cc3cnccn3)c1C)C(=O)c1ccccc1C2=O + O=C(Nc1ccccc1)c1cc([N+](=O)[O-])ccc1Cl [GW9662] (first compound 0.0004 µM, partner dose 2 µM) | 97% |

System: A101D
Assay: as above
Conditions: library dose: low library concentration; 72 h

| Compound | cell count |
| --- | --- |
| O=C(CCCCCCC(=O)Nc1ccccc1)NO [vorinostat] + CC(C)CCN1c2nc(Nc3cc(F)c(O)c(F)c3)ncc2N(C)C(=O)C1C [BID1870] (first compound 0.08 µM, partner dose 0.2 µM) | 85.2% |
| Cn1c(Nc2ccc(C(F)(F)F)cc2)nc2cc(Oc3ccnc(-c4ncc(C(F)(F)F)[nH]4)c3)ccc21 + Cn1cc(/C=C2\C(=O)Nc3cccnc32)c2ccccc21 [GW441756] (first compound 0.08 µM, partner dose 0.4 µM) | 59.2% |
| Nc1cccc2c1CN(C1CCC(=O)NC1=O)C2=O (stereo unspecified) [lenalidomide] + O=c1cc(-c2cccc3c2Sc2ccccc2S3)oc(N2CCOCC2)c1 [KU55933] (first compound 1 µM, partner dose 1 µM) | 108% |
| O=C(CCCCCCC(=O)Nc1ccccc1)NO [vorinostat] + COc1cc2ncnc(Nc3ccc(Oc4ccccc4)cc3)c2cc1OC [SrcI1] (first compound 0.08 µM, partner dose 2 µM) | 95.9% |
| Nc1cccc2c1CN(C1CCC(=O)NC1=O)C2=O (stereo unspecified) [lenalidomide] + CC(C)CCN1c2nc(Nc3cc(F)c(O)c(F)c3)ncc2N(C)C(=O)C1C [BID1870] (first compound 1 µM, partner dose 0.2 µM) | 81.5% |
| C#Cc1cccc(Nc2ncnc3cc(OCCOC)c(OCCOC)cc23)c1 [erlotinib] + Cn1cc(/C=C2\C(=O)Nc3cccnc32)c2ccccc21 [GW441756] (first compound 0.8 µM, partner dose 0.4 µM) | 101% |
| COCC[n+]1c2c(n(Cc3cnccn3)c1C)C(=O)c1ccccc1C2=O + Cn1cc(/C=C2\C(=O)Nc3cccnc32)c2ccccc21 [GW441756] (first compound 0.0004 µM, partner dose 0.4 µM) | 95.6% |
| COCC[n+]1c2c(n(Cc3cnccn3)c1C)C(=O)c1ccccc1C2=O + CCCCCCCCCCCC1=C(O)C(=O)C=C(O)C1=O [Embelin] (first compound 0.0004 µM, partner dose 1.2 µM) | 102% |
| O=C(CCCCCCC(=O)Nc1ccccc1)NO [vorinostat] + COc1cc(N2CCC(N3CCN(C)CC3)CC2)ccc1Nc1ncc(Cl)c(Nc2ccccc2S(=O)(=O)C(C)C)n1 [NVP-TAE684] (first compound 0.08 µM, partner dose 0.08 µM) | 100% |
| Nc1cccc2c1CN(C1CCC(=O)NC1=O)C2=O (stereo unspecified) [lenalidomide] + O=S(=O)(c1ccccc1)N(CC(F)(F)F)c1ccc(C(O)(C(F)(F)F)C(F)(F)F)cc1 [T0901317] (first compound 1 µM, partner dose 1.4 µM) | 102% |
| Cn1c(Nc2ccc(C(F)(F)F)cc2)nc2cc(Oc3ccnc(-c4ncc(C(F)(F)F)[nH]4)c3)ccc21 + COc1ccc2c(c1)CCC1C2CCC2(C)C(NCCCCCCN3C(=O)C=CC3=O)CCC12 [U73122] (first compound 0.08 µM, partner dose 0.4 µM) | 63% |
| Cn1c(Nc2ccc(C(F)(F)F)cc2)nc2cc(Oc3ccnc(-c4ncc(C(F)(F)F)[nH]4)c3)ccc21 + O=C1NC(=O)/C(=C/c2ccc(-c3ccc(F)cc3O)o2)S1 [AS252424] (first compound 0.08 µM, partner dose 1 µM) | 56.1% |
